Test results published in the supplement of paper PMC10126150.
Sequences with one replicate were seen in a single cluster, so their values are uncertain.

system: ATP; assay: switch fluorescence ratio, 500 uM ATP over buffer (Cy3 cluster intensity, sum of 5 cycles each) (fold (ratio)); higher = stronger signal-on switching upon ATP binding; sequences stand for … in TCGTCGGCAGCGTCAGATGTGTATAAGAGACAGTTTTTTTTTTTTTTTTTTTTTTTTT…TC; conditions: aptamer strand: ATP DNA aptamer (quencher-CACCTGGGGGAGTATTGCGGAGGAAGG + anchor), 100 nM annealed; ATP concentration: 500 uM; one replicate
How it was run: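 Switching-strand clusters labelled with Cy3 on a modified Illumina MiSeq flow-cell were annealed to 100 nM quencher-labelled ATP aptamer, imaged in selection buffer, and re-imaged after 15 min with 500 uM ATP at 22 °C. This was done over five cycles with NaOH stripping and re-annealing in between. The fluorescence ratio is summed target-cycle over summed buffer-cycle Cy3 intensity per cluster, averaged per switch-domain sequence, excluding clusters outside 100-1000 RFU.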
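Note: ATP exposure 15 min at 22 °C before imaging.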

| Sequence | switch fluorescence ratio |
| --- | --- |
| GGCGCGCGAT | 0.989 |
| GGCGCGGGGC | 1.05 |
| GGCGCGTAGG | 1.03 |
| GGCGCTGGTA | 1.02 |
| GGCGGATGCA | 0.988 |
| GGCGGATTCT | 0.986 |
| GGCGGCTCCG | 0.996 |
| GGCGGGCCGA | 1 |
| GGCGGTAAAC | 1.05 |
| GGCGGTATCC | 0.978 |
| GGCGTAAA | 0.946 |
| GGCGTAGATA | 1.04 |
| GGCGTCATTT | 0.992 |
| GGCGTCGCAA | 1.21 |
| GGCGTCGTCC | 0.966 |
| GGCGTCTTGG | 0.994 |
| GGCGTGGTGA | 1.05 |
| GGCGTGTATT | 1 |
| GGCGTTCAAG | 0.984 |
| GGCGTTCGAC | 1.02 |
| GGCTAAATGA | 0.975 |
| GGCTAAATGC | 1.01 |
| GGCTAACGCA | 1.05 |
| GGCTAAGCA | 1 |
| GGCTAATAAC | 1.09 |

| Sequence | switch fluorescence ratio |
| --- | --- |
| GGCTAATCTT | 0.991 |
| GGCTAATGTG | 0.988 |
| GGCTACAGTT | 0.959 |
| GGCTACCGGA | 0.973 |
| GGCTACGACG | 1.02 |
| GGCTACTAAA | 0.971 |
| GGCTAGACC | 1.04 |
| GGCTATACTG | 1.07 |
| GGCTATGACT | 1 |
| GGCTATTGAG | 1 |
| GGCTCATATT | 0.996 |
| GGCTCCACGC | 0.998 |
| GGCTCTATTA | 1.01 |
| GGCTGAAGGA | 1 |
| GGCTGAATAT | 0.982 |
| GGCTGAGGCT | 0.998 |
| GGCTGCCTGT | 0.938 |
| GGCTGGAGCG | 0.989 |
| GGCTGTGGTC | 0.983 |
| GGCTTCATAC | 1.36 |
| GGCTTGATGT | 0.999 |
| GGCTTGCATG | 0.98 |
| GGCTTGTCAC | 1.02 |
| GGCTTTCTAG | 0.978 |
| GGCTTTTCTT | 1.04 |

| Sequence | switch fluorescence ratio |
| --- | --- |
| GGCTTTTGAA | 0.995 |
| GGCTTTTTGC | 0.942 |
| GGGAAAGGTC | 0.959 |
| GGGAACCACG | 1.03 |
| GGGAACTTTA | 1.02 |
| GGGAAGACGT | 1 |
| GGGAAGAGT | 0.968 |
| GGGAAGGGCT | 0.961 |
| GGGAAGTTGC | 0.971 |
| GGGAATAACA | 1.05 |
| GGGACAA | 1.01 |
| GGGACATGCT | 0.982 |
| GGGACATGTT | 1.02 |
| GGGACCAGCC | 1.02 |
| GGGACGCTCT | 1.05 |
| GGGACGTTTG | 0.988 |
| GGGACTAGGA | 0.969 |
| GGGAGAAGTT | 1.01 |
| GGGAGACACC | 0.985 |
| GGGAGATACT | 1.01 |
| GGGAGGGTCG | 1.09 |
| GGGAGGTAAA | 1.03 |
| GGGAGTGATA | 1 |
| GGGAGTTACA | 0.979 |
| GGGATAAGAC | 1.04 |

| Sequence | switch fluorescence ratio |
| --- | --- |
| GGGATAAGAT | 0.968 |
| GGGATACCT | 1.92 |
| GGGATACTAT | 0.971 |
| GGGATAGCTG | 1.05 |
| GGGATATACG | 1.04 |
| GGGATCATG | 1.03 |
| GGGATCGGGT | 0.988 |
| GGGATGATGG | 0.994 |
| GGGATGTGAT | 0.995 |
| GGGATTTTAG | 0.994 |
| GGGCAACC | 1.04 |
| GGGCAAGTCC | 1.03 |
| GGGCAATGAA | 1.03 |
| GGGCACAGTG | 1.04 |
| GGGCACCCCT | 1.01 |
| GGGCACGCGG | 0.966 |
| GGGCACGGTC | 1.05 |
| GGGCAGAAGG | 1.01 |
| GGGCAGATTG | 0.996 |
| GGGCAGCTTT | 1 |
| GGGCAGGACC | 1.01 |
| GGGCAGTCCG | 0.984 |
| GGGCATTCCC | 0.987 |
| GGGCCAAAAT | 1.03 |
| GGGCCAAGCG | 0.972 |
